The values below come from PubChem BioAssay AID2528 (National Center for Advancing Translational Sciences (NCATS), 2010).

About 700 (0.2%) of roughly 350,000 compounds were called active. Calls follow the shape of the dose curve; as a rule, active = well fitted inhibition curve with a large enough effect; inconclusive = small, poorly fitted or top-dose-only effect; inactive = flat fitted curve, though single readings scatter. The entries are a selection whose mix differs from that of the whole data set. Some structures have more than one record in an assay (separate samples or runs), and their calls can disagree.
Potency is read from the fitted curve at half-maximal effect.

For the assay, the target named is RecQ-like DNA helicase BLM (Homo sapiens) (UniProt P54132). The assay is described as follows: qHTS Assay for Inhibitors of Bloom's syndrome helicase (BLM). Also: nearly all actives have a fitted effect of over 35% in size.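 As to activity change, negative = inhibition: plate controls were vehicle for no effect and no enzyme for full effect.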 The note with it: recombinant BLM DNA unwinding, fluorescence dequenching; series mostly up to 56.1 µM; activity change, negative = inhibition: at the top concentration. (Quantitative high-throughput screening tests each substance at several concentrations.)
Sequence of UniProt P54132 (P54132 whole entry, looked up): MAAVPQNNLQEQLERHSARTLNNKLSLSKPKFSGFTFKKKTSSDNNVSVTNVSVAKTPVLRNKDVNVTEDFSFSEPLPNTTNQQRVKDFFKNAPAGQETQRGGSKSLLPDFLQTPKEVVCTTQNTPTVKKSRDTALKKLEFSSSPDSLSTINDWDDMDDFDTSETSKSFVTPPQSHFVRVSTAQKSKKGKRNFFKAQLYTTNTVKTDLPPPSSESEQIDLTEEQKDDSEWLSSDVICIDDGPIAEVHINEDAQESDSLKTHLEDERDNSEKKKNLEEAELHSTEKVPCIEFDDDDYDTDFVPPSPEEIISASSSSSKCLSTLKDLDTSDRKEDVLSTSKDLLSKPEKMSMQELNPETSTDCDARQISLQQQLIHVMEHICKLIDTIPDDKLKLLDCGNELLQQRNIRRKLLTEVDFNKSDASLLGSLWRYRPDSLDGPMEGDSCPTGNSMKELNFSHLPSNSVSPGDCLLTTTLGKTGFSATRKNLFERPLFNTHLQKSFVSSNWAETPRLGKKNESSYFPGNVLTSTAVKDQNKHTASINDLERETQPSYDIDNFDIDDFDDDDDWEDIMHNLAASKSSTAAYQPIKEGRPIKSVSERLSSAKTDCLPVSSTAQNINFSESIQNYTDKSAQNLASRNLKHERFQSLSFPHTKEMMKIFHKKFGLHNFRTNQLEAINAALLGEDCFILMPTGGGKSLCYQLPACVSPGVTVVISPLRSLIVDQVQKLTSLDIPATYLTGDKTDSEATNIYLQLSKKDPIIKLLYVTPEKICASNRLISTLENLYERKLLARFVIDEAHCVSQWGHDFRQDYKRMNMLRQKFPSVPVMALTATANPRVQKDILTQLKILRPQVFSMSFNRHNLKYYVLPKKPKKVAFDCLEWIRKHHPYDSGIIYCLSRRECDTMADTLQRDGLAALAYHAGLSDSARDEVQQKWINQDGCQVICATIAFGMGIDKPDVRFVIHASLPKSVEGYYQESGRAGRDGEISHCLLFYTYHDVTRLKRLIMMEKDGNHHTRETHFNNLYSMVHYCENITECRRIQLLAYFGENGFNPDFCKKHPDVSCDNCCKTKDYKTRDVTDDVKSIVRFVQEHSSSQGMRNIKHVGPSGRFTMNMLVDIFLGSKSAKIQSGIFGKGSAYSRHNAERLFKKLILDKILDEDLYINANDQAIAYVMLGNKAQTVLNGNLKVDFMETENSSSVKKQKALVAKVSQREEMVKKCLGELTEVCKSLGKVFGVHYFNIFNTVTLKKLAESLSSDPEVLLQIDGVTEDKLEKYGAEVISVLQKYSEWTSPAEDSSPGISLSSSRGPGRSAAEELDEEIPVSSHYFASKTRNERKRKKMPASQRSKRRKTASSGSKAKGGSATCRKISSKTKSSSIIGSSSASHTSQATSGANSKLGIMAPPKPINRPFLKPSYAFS
As to `CC(C)NC[C@@H](O)COc1ccc(CCOCC2CC2)cc1`, the Potency result was “inactive”.

As to `NC(N)=Nc1nc(CSCC/C(N)=N\S(N)(=O)=O)cs1`, the “activity change, negative = inhibition” value is inactive: 5.51%.

Consider `COc1ccc(C(CC(=O)N2CCOCC2)c2c(OC)cc(OC)c3c(-c4ccccc4)cc(=O)oc23)cc1` (configuration not stated), for which the “activity change, negative = inhibition” value is inactive: -20.9%.

With `CC(=O)Nc1cc(OC(C)=O)c2nonc2c1OC(C)=O`, the Potency is active: 1.58 µM.

As to `CCN(Cc1ccncc1)C(=O)C(CO)c1ccccc1` (configuration not stated), the Potency result is “inactive”.

Regarding `N=C(N)c1ccccc1`, the “activity change, negative = inhibition” value was inactive: -0.722%.

For the compound `O=C(NCCNCC(O)COc1ccc(O)cc1)N1CCOCC1` (configuration not stated), the “activity change, negative = inhibition” value was inactive: 3.48%.

Regarding `COc1ccc(C(=O)NCc2cccnc2)cc1C(=O)NCc1cccnc1`, the “activity change, negative = inhibition” value was inactive: 1.88% [at 21.4 µM].

With `O=[N+]([O-])c1cc2c(cc1/C=N/n1c(-c3ccccc3)n[nH]c1=S)OCO2`, the Potency was active: 17.8 µM.

As for `COc1ccc2[nH]cc(CCNC(C)=O)c2c1`, the Potency entry is “inactive”.

Regarding `O=Nc1c(-c2c(O)[nH]c3ccccc23)[nH]c2ccccc12`, the “activity change, negative = inhibition” value is inactive: -11.3%.

For `NCCS(=O)(=O)O`, the Potency result was “inactive”.

Take `C[C@@](N)(Cc1ccc(O)cc1)C(=O)O`: the “activity change, negative = inhibition” value is inactive: 1.9%.

Take `CC(C)(C)NC[C@H](O)c1cc(O)cc(O)c1`: the “activity change, negative = inhibition” value is inactive: -6.94%.

As for `COCCNC(=O)Nc1ccc2nc(-c3ccco3)c(-c3ccco3)nc2c1`, the Potency was active: 12.6 µM.

Take `C=C[C@H](N)CCC(=O)O`: the Potency result was “inactive”.

For the compound `CC(=O)OC1C(=O)[C@@]2(C)C(O)CC3OC[C@]3(OC(C)=O)C2C(OC(=O)c2ccccc2)[C@]2(O)CC(OC(=O)C(O)C(NC(=O)c3ccccc3)c3ccccc3)C(C)=C1C2(C)C` (some centres not stated), the “activity change, negative = inhibition” value is inactive: 6.71%.

As to `O=c1[nH]c2ccccc2c2ccccc12`, the “activity change, negative = inhibition” value was inactive: -9.61%.

Regarding `C#CCN(C)Cc1ccccc1`, the Potency result is “inactive”.

For the compound `CN/C(=C/[N+](=O)[O-])NCCSCc1ccc(CN(C)C)o1`, the “activity change, negative = inhibition” value is inactive: -6.21%.

`CCN(CC)CCNC(=O)c1cc(S(C)(=O)=O)ccc1OC`: the Potency result is “inactive”.

For `O=C1c2ccccc2C(=O)c2c(NCCCN(CCO)CCO)cccc21`, the Potency is active: 15.8 µM.

For `CC(C)C[C@@H](CC(=O)N[C@H](CC(=O)N[C@@H]1CCCC[C@H]1C(=O)N[C@H](CC(=O)N[C@@H](CCC(=O)O)CC(=O)O)Cc1c[nH]c2ccccc12)C(C)C)NC(=O)[C@@H]1CCCC[C@H]1N`, the Potency was active: 7.08 µM.

Turning to `CC1=C(\C=C/C(C)=C/C=C\C(C)=C\C(=O)O)C(C)(C)CCC1`, the Potency entry was “inactive”.

`Nc1ccn([C@@H]2CC[C@H](CO)O2)c(=O)n1`: the “activity change, negative = inhibition” value is inactive: -0.585% [at 21.4 µM].

As to `NC(C(=O)O)C(O)C(=O)O` (configuration not stated), the “activity change, negative = inhibition” value was inactive: 0.865%.

As to `O=C(COC(=O)c1ccc(NS(=O)(=O)c2cccs2)cc1)NCc1ccco1`, the Potency is active: 14.1 µM.

In the case of `Nc1nc(SCc2ccc([N+](=O)[O-])cc2)c2ncn(C3OC(CO)C(O)C3O)c2n1` (configuration not stated), the “activity change, negative = inhibition” value was inactive: -4.58%.

For `Nc1c(C(=O)NC2CC2)sc2nc3c(c(-c4ccco4)c12)CC/C3=C/c1ccco1`, the Potency is active: 5.62 µM.

Take `Cn1c(=O)c(C(=O)COC(=O)c2cc(-c3ccco3)nc3ccccc23)c(N)n(CC2CC2)c1=O`: the “activity change, negative = inhibition” value was inactive: -27.8%.

Take `CN(C)CCC[C@@]1(c2ccc(F)cc2)OCc2cc(C#N)ccc21`: the Potency entry was “inactive”.

Turning to `O=C(Cc1cccs1)N/N=C/C=C/c1ccco1`, the Potency is active: 25.1 µM.

Consider `O=Nc1c(-c2c(O)[nH]c3cc(Br)ccc23)[nH]c2ccccc12`, for which the “activity change, negative = inhibition” value was inactive: -16%.

As for `CC[C@H](C)C(=O)O[C@H]1CCC=C2C=C[C@H](C)[C@H](CC[C@@H]3C[C@@H](O)CC(=O)O3)[C@H]21`, the Potency result was “inactive”.

For `CC(=O)c1ccc(NC(=O)c2ccc3nc(-c4ccco4)c(-c4ccco4)nc3c2)cc1`, the Potency is active: 15.8 µM.

With `O=C(/C=C/c1ccc(O)c(O)c1)OCCc1ccccc1`, the Potency result was “inactive”.

`NNc1nncc2ccccc12`: the Potency result is “inactive”.

With `COc1ccc([C@H]2Sc3ccccc3N(CCN(C)C)C(=O)[C@H]2OC(C)=O)cc1`, the “activity change, negative = inhibition” value was inactive: 1.31% [at 21.4 µM].

In the case of `COc1cccc(/C=N/Nc2nc(Nc3ccc([N+](=O)[O-])cc3)nc(N3CCCC3)n2)c1O`, the Potency is active: 28.2 µM.

Regarding `O=C(OCC1OC(OC(=O)c2cc(O)c(O)c(OC(=O)c3cc(O)c(O)c(O)c3)c2)[C@@H](OC(=O)c2cc(O)c(O)c(OC(=O)c3cc(O)c(O)c(O)c3)c2)C(OC(=O)c2cc(O)c(O)c(OC(=O)c3cc(O)c(O)c(O)c3)c2)C1OC(=O)c1cc(O)c(O)c(OC(=O)c2cc(O)c(O)c(O)c2)c1)c1cc(O)c(O)c(OC(=O)c2cc(O)c(O)c(O)c2)c1` (some centres not stated), the Potency was active: 0.0708 µM.

`CC(=O)[C@]1(O)Cc2c(O)c3c(c(O)c2[C@@H](O[C@H]2C[C@H](N)[C@H](O)[C@H](C)O2)C1)C(=O)c1ccccc1C3=O`: the “activity change, negative = inhibition” value is inactive: -56.3%.

With `C=CC1(C)CC(=O)C2(O)C(C)(O1)C(OC(C)=O)C(O)C1C(C)(C)CCC(O)C12C` (configuration not stated), the “activity change, negative = inhibition” value was inactive: -0.934%.

With `Nc1ncnc2c1c(-c1ccc(Oc3ccccc3)cc1)cn2C1CCCC1`, the “activity change, negative = inhibition” value was inactive: -13.6%.

For `CCOc1ccc2nc(N3C(=O)/C(=C/c4ccc(Cl)cc4)NC3=S)sc2c1`, the Potency was active: 28.2 µM.

On to `CCC(C)N(C)C(=O)c1cc2ccccc2c(-c2ccccc2Cl)n1` (configuration not stated), for which the “activity change, negative = inhibition” value is inactive: -12.8%.

For the compound `COc1cc2c(cc1C(F)(F)F)N(C(=O)Nc1cc(F)cc(-c3cccnc3)c1)CC2`, the “activity change, negative = inhibition” value was inactive: -24.3%.

On to `CN(C)c1nc(N(C)C)nc(N(C)C)n1`, for which the Potency entry is “inactive”.

`O=C(COC(=O)c1cccc(S(=O)(=O)N2CCN(c3ccccc3)CC2)c1)NCc1ccco1`: the Potency is active: 17.8 µM.

As to `CC(=O)O[C@H]1C(=O)[C@@]2(C)C([C@H](OC(=O)c3ccccc3)[C@]3(O)C[C@H](OC(=O)[C@H](O)[C@@H](NC(=O)c4ccccc4)c4ccccc4)C(C)=C1C3(C)C)[C@]1(OC(C)=O)CO[C@@H]1C[C@H]2O` (some centres not stated), the “activity change, negative = inhibition” value was inactive: -12.6%.

Turning to `COc1ccccc1OCC(O)CN1CCN(CC(=O)Nc2c(C)cccc2C)CC1` (configuration not stated), the “activity change, negative = inhibition” value is inactive: -3.41%.

In the case of `O=[N+]([O-])c1cccc2cn[nH]c12`, the Potency entry is “inactive”.

In the case of `CC(=O)OCC(=O)[C@@]1(O)CCC2C3CCC4=CC(=O)CC[C@]4(C)C3C(=O)C[C@]21C` (some centres not stated), the “activity change, negative = inhibition” value is inactive: -7.37%.

As to `O=c1c(O)c(-c2ccc(O)cc2O)oc2cc(O)cc(O)c12`, the Potency result was “inactive”.

Turning to `C=C[C@]1(C)CC(=O)[C@@]2(O)[C@@]3(C)C(O)CCC(C)(C)C3C(O)C(OC(C)=O)[C@@]2(C)O1` (some centres not stated), the “activity change, negative = inhibition” value is inactive: 3.19%.

On to `COc1ccc(C2CNC(=O)C2)cc1OC1CCCC1` (configuration not stated), for which the Potency result was “inactive”.

Take `Fc1ccc(NC(=S)Nc2cccc3cnccc23)cc1`: the Potency is active: 22.4 µM.

As for `Cc1ccc(-c2nn3c(C)nnc3s2)cc1NC(=O)c1ccc(-c2ccc(Cl)cc2Cl)o1`, the Potency was active: 11.2 µM.
